# Measured values taken from PubChem BioAssay AID485344 (National Center for Advancing Translational Sciences (NCATS), 2010).
# Out of some 340,000 compounds screened, about 6,900 (2%) were called active. No stated cut-off is given here; in the data, active means inhibition above about 30%; inactive means below that, where a call was filed. This is a selection; strong and weak results do not stand in their true shares. Entries without a call were filed so in the source.
# Target: D(2) dopamine receptor (Homo sapiens) (UniProt P14416)
# Experiment: HTS Assay for Allosteric Antagonists of the Human D2 Dopamine Receptor: Primary Screen for Antagonists; further: 0% is about no effect
# Details: HEK293 TREx D2 cells, calcium flux, dopamine EC80; at 10 µM; stronger effect = higher value
# In short: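 Measurement of antagonist activity uses fluorescent calcium dye in inducible HEK293 T-REx D2 cells: 10 s baseline, compound addition with 180 s read, EC80 dopamine addition with a further 180 s read.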
# Chain of UniProt P14416 (P14416 whole entry, looked up): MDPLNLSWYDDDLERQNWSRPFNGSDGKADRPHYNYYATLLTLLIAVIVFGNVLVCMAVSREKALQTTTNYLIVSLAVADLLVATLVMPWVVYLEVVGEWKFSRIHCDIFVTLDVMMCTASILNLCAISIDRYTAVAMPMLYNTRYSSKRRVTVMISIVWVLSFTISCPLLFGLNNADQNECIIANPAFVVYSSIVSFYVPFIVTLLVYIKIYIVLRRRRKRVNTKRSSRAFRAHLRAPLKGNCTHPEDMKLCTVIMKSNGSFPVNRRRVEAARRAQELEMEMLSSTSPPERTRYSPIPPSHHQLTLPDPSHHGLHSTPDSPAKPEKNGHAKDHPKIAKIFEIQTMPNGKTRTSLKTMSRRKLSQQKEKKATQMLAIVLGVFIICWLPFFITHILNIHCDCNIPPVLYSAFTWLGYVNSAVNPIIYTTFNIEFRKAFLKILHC
row,Compound,inhibition
1,Cn1cnc(S(=O)(=O)N2CCCC(C(=O)NCc3ccccc3Cl)C2)c1 (configuration not stated),14.5%
2,Cc1cc(=O)[nH]c2nnc(SCc3ccc(Cl)c(Cl)c3)n12,10.9%
3,COc1cccc(NC(=O)CSc2cc(=O)n(C)c3ccc(Cl)cc23)c1,2.34%
4,CCOC(=O)N1CCc2c(sc(NCc3sccc3C)c2C(=O)Nc2cc(OC)ccc2OC)C1,1.27%
5,CCCCN(C)CCCNC(=O)CN1C(=O)COc2ccc(S(=O)(=O)N3CCC(C)CC3)cc21,-6.52%
6,CCCCNC(=O)C1CCN(C(=O)N2CC(C)Oc3ccc(Cl)cc32)CC1 (configuration not stated),-10.1%
7,CCOc1ccccc1-n1c(C)nc2cc(C(=O)O)ccc21,-4.33%
8,Cc1nc2c(C(=O)NCc3ccccc3Cl)c[nH]n2c(=O)c1Cc1cccc(Cl)c1,-18.6%
9,Cc1c(Cl)cccc1NC(=O)CC(c1cccs1)N1Cc2ccccc2C1=O (configuration not stated),-7.13%
10,CC(NC(=O)CSc1n[nH]c(-c2ccccc2Cl)n1)c1nc2ccccc2n1C (configuration not stated),-12.8%
11,CCOc1ccc(NC(=O)CN2CCN(Cc3ccccc3)S2(=O)=O)cc1,4.71%
12,CN(CCOCCOc1ccc(Cl)cc1Br)Cc1ccccc1,active: 39.9%
13,COc1c(C)cc(S(=O)(=O)Nc2cccc(-c3ccc(N4CCOCC4)nn3)c2)c(C)c1C,-2.39%
14,CCOC(=O)c1cccc(NC(=O)CC(c2cc(OC)c(OC)c(OC)c2)N2Cc3ccccc3C2=O)c1 (configuration not stated),1.31%
15,CCN(CC)CCn1c(=S)[nH]c2cc(C(=O)NCc3ccc(C)cc3)ccc2c1=O,active: 36.4%
16,CCc1nn2c(-c3ccccc3OC)ccnc2c1-c1ccc(F)cc1,26.1%
17,CCn1c(=NC(=O)c2ccc(S(=O)(=O)N3CCCCC3)cc2)sc2cccc(OC)c21,15.6%
18,COc1ccccc1-c1cc(C(=O)NCc2cccs2)no1,active: 75.5%
19,COC(=O)c1ccc(NC(=O)CCc2c(C)nc3c(c(C)nn3-c3ccc(C)cc3)c2C)cc1,-2.05%
20,Cc1cccc(NC(=O)c2oc3c(c2C)-c2[nH]ncc2CC3)c1C,20%
21,COc1ccc(CCNc2nc(-c3ccc(C)cc3)cc(C(F)F)n2)cc1OC,13.1%
22,CCOC(=O)C1CCN(c2c(C(=O)c3ccc(OCC)cc3)cnc3ccc(OC)cc23)CC1,5.92%
23,Clc1cccc2c1Sc1ccccc1CC2N1CCNCC1 (configuration not stated),active: 65.8%
24,CC1=C(C(N)=O)C(c2ccc(C(C)C)cc2)n2nc(SCc3ccccc3)nc2N1 (configuration not stated),7%

row,Compound,inhibition
1,COc1ccc(CCNC(=O)c2ccc3c(c2)N(Cc2ccc(C)cc2)CCS3)cc1OC,-5.47%
2,Cc1cc(C)n2nc(SCC(=O)Nc3cc(Cl)ccc3C)nc2n1,2.55%
3,CCOc1ccc(S(=O)(=O)N(CC(=O)Nc2cccnc2)c2ccccc2)cc1,-24.1%
4,Cc1cc(N2CCN(C)CC2)nc2ccc(NC(=O)Nc3ccccc3Br)cc12,19.6%
5,COc1ccc2c(c1)cc(CNc1ccc(OC)c(OC)c1)c(=O)n2CC(=O)Nc1ccc(F)cc1,11.3%
6,COc1ccccc1CNC(=O)CCc1c(C)c2ccc(OC)c(C)c2oc1=O,11.3%
7,Cc1c(C(=O)Nc2ccc(F)c(F)c2)oc2ccc(S(=O)(=O)N3CCCCC3)cc12,4.45%
8,O=S(=O)(NCC(c1ccco1)S(=O)(=O)c1ccccc1)c1ccccc1 (configuration not stated),3.22%
9,COc1ccc(N2CCN(C(=O)CCc3c(C)nc4c(-c5ccccc5)c(C)nn4c3C)CC2)cc1,5.75%
10,COc1ccc(CNC(=O)Cn2c(=O)oc3cc(S(=O)(=O)N4CCCCCC4)ccc32)cc1,4.72%
11,COc1ccccc1CNC(=O)CCCCn1c(=O)c2ccccc2n(Cc2c(C)cc(C)cc2C)c1=O,1.34%
12,COc1ccc(NC(=O)NC2COc3ccccc3C2)c(OC)c1 (configuration not stated),19.7%
13,COC(=O)c1ccc(CN2CCC(CO)(Cc3ccc(OC)cc3)CC2)cc1,active: 63.2%
14,O=C(Cn1ccn(-c2cccc(Cl)c2)c(=O)c1=O)NCCc1ccccc1,-10.9%
15,Cc1c(C(=O)Nc2nc(-c3ccc(F)cc3)ns2)oc2ccc(Br)cc12,8.53%
16,COc1ccc(CNC(=O)CCc2cn(Cc3cc(C)ccc3C)c3ccccc23)cc1OC,-1.88%
17,O=c1cc(-c2ccccc2)nc(SCc2nc(-c3ccc(C(F)(F)F)cc3)no2)[nH]1,19%
18,CS(=O)(=O)Nc1ccc(C(=O)N2CCN(c3ccccc3F)CC2)cc1,active: 63.5%
19,CCCOc1ccc(-c2nc3ccccc3c(=O)o2)cc1,-0.394%
20,CC(C)(C)c1ccc(-c2nc3cc(NC(=O)c4cc5ccccc5o4)ccc3o2)cc1,-12.6%
21,COc1cccc(CNC(=O)CCC2CCCN(C/C=C/c3ccccc3OC)C2)c1 (configuration not stated),active: 32.5%
22,Cc1cccc(NC(=O)C2CCN(S(=O)(=O)c3cccc4nsnc34)CC2)c1,15.8%
23,CC1CCN(C(=O)Cn2cc(SCc3cccc(F)c3)c3ccccc32)CC1,9.76%
